# Experimental data: PubChem BioAssay AID624417 (National Center for Advancing Translational Sciences (NCATS), 2012)
# Values joined by “and” are separate entries in the source; they are usually repeats but may differ in a detail not shown here. Equal entries are not always repeated. In all, about 410,000 compounds went through this assay and about 6,400 (1.6%) were called active. Inconclusive results, whose numbers are uncertain, are shown with a selection of clear calls. Calls follow the shape of the dose curve; as a rule, active = well fitted inhibition curve with a large enough effect; inconclusive = small, poorly fitted or top-dose-only effect; inactive = no such curve, though single readings can be large or run the other way. Potencies of inconclusive entries are doubtful fits and often do not repeat.
# Target: Glucagon-like peptide 1 receptor (Homo sapiens) (UniProt P43220)
# UniProt P43220, sequence (P43220 whole entry, looked up): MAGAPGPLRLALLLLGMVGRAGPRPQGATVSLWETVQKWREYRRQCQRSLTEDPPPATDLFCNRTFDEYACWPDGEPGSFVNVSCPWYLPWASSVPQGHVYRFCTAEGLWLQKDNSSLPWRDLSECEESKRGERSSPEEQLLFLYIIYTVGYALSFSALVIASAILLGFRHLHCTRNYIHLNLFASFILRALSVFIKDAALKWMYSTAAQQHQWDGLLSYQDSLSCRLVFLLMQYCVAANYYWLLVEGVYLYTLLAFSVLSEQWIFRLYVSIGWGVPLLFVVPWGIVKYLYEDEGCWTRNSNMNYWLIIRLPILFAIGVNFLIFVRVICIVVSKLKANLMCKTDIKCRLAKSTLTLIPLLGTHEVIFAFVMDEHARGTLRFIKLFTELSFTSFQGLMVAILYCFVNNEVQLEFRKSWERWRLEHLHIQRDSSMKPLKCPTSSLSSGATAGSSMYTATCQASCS
# Test: qHTS of GLP-1 Receptor Inverse Agonists (Inhibition Mode); also: nearly all actives have a fitted effect of over 55% in size
# Settings: HEK293 GLP-1R CRE-luciferase, luminescence, 24 h, GLP-1R form is constitutively active; activity change, negative = inhibition: at 38.3 µM (top of the series) unless noted
# Procedure, shortened: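 Using stably transfected HEK293 (constitutively active GLP-1R, cAMP-luciferase reporter), compounds were incubated 24 hr and luciferase measured by luminescence.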
# % is scaled to controls: 0 for no effect and ±100 for the full control effect; potency is read from the fitted curve at half-maximal effect; tags tell the direction and shape of the fitted curve.
SMILES,Potency,"activity change, negative = inhibition"
Cn1nc(C(C)(C)C)cc1NC(=O)C1(C)CCN1C(=O)C1(c2ccccc2)CCCC1 (stereo not drawn),"inconclusive: 11.2 µM [inhibitor, partial curve, poor fit]",–
COc1ccc(-c2[nH]nc3nc(N4CCN(C(=O)c5ccoc5)CC4)cc(C(F)(F)F)c23)cc1,"inconclusive: 11.2 µM [inhibitor, partial curve, poor fit]",–
COC(=O)C1CCN(c2cnccn2)CC1,–,inactive: -6.43%
CC(C)CNC(=O)CC(c1ccccc1)c1c(O)ccc2ccccc12 (stereo not drawn),"inconclusive: 11.2 µM [inhibitor, partial curve, poor fit]",–
COc1ccc(-n2nc3c(N4CCCC(C(=O)NCc5ccccc5C)C4)nnc(C)c3c2C)cc1 (stereo not drawn),"inconclusive: 28.2 µM [inhibitor, single point]",–
Cc1cc(C(=O)Cn2cc(C(F)(F)F)ccc2=O)c(C)n1-c1ccccc1,–,inactive: -26.6%
COc1ccc([C@H]2CC(=O)C=C(c3ccc(OC)c(F)c3)C2)cc1,"inconclusive: 12.6 µM [inhibitor, partial curve, poor fit]",–
CCOC(=O)CC(=O)CSc1nc2ccc(OC)cc2cc1C,"inconclusive: 7.08 µM [inhibitor, partial curve, poor fit]",–
CCN(CC)C(=O)CN1C(=O)C2(OCC(C)(c3ccccc3)CO2)c2ccccc21 (stereo not drawn),"inconclusive: 10 µM [inhibitor, partial curve, poor fit]",–
Cc1cccc(N2CCN(C(=O)c3ccc(N4CCCC4=O)cc3)CC2C)c1 (stereo not drawn),"inconclusive: 10 µM [inhibitor, partial curve, poor fit]",–
O=C(c1cccs1)N1C[C@@H](O)[C@H](n2cc(-c3ccc(F)cc3)nn2)C[C@@H]1c1ccc(Cl)cc1,"inconclusive: 12.6 µM [inhibitor, partial curve, poor fit]",–
COc1ccc(Cl)cc1S(=O)(=O)Nc1ccc2c(c1)n(C)c(=O)n2C,inactive,–
COc1ccc2c(c1)c(CC(=O)Nc1cccc(S(N)(=O)=O)c1)c(C)n2C(=O)c1ccc(Cl)cc1,"inconclusive: 11.2 µM [inhibitor, single point]",–
CCOc1ccc2oc(C(=O)NC3CCN(Cc4ccccc4)CC3)c(C)c2c1,"inconclusive: 2.51 µM [inhibitor, full curve, poor fit]",–
NS(=O)(=O)c1ccc(CNC(=O)c2cc(-c3cccnc3)nc3ccc(Br)cc23)cc1,"inconclusive: 28.2 µM [inhibitor, single point]",–
COc1ccc(CN(C(=O)c2cnccn2)C(C(=O)Nc2ccc(F)cc2)c2ccccc2)cc1 (stereo not drawn),active: 5.62 µM,–
CCCN1C(=O)/C(=C2\SC(N3CCCCC3)=NC2=O)c2ccccc21,–,inactive: 0.979%
O=C(NCc1ccco1)c1cc2n(n1)C(C(F)(F)F)CC(c1ccc(Br)cc1)N2 (stereo not drawn),"inconclusive: 5.62 µM [inhibitor, partial curve]",–
CCc1sc(-c2c(C#N)c(N)nc3c2CCCCCC3)cc1[N+](=O)[O-],"inconclusive: 2.82 µM [inhibitor, full curve, poor fit]",–
CCCNC(=O)c1cc(S(=O)(=O)N2CCC3(CC2)OCCO3)ccc1F,–,inactive: -7.67%
COc1cccc(CNc2ncc(C(=O)Nc3cc(OC)c(OC)c(OC)c3)c(C)n2)c1,"inconclusive: 1.41 µM [inhibitor, full curve, poor fit]",–

SMILES,Potency,"activity change, negative = inhibition"
CCc1ccc(CNC(=O)CCn2ccc3cc(S(=O)(=O)N4CCCC4)ccc32)cc1,"inconclusive: 10 µM [inhibitor, single point]",–
Cc1ccc(-n2nc(-c3ccc(OC(F)(F)F)cc3)cc2N)cc1C,"inconclusive: 12.6 µM [inhibitor, single point]",–
COc1ccc(S(=O)(=O)N2CCOC2CNC(=O)C(=O)NCCc2ccccc2)cc1C (stereo not drawn),"inconclusive: 2.51 µM [inhibitor, full curve]",–
Cn1c(NC(=S)Nc2ccccc2)nc2ccccc21,"inconclusive: 0.501 µM [inhibitor, full curve, poor fit]",–
CC(C)c1ccc(NC(=O)[C@H](Cc2c[nH]c3ccccc23)NC(=O)[C@@H]2Cc3ccccc3CN2)cc1,"inconclusive: 1 µM [inhibitor, full curve, poor fit]",–
O=C(Nc1ccccn1)C1CCN(C(=O)c2ccc(Cl)cc2)CC1,–,inactive: 4.05%
Oc1c(Br)cc(C2N=C(c3ccccc3)NO2)cc1Br (stereo not drawn),"inconclusive: 0.355 µM [inhibitor, full curve, poor fit]",–
Cc1ccc(CSc2nc3ccncc3n2CC(=O)Nc2cc(C)cc(C)c2)cc1,"inconclusive: 11.2 µM [inhibitor, single point]",–
Cc1cccc(Nc2nc(-c3ccc(O)c(O)c3)cs2)n1,–,inactive: 76.7%
c1cncc(Nc2c3ccccc3nc3ccccc23)c1,–,inconclusive: -78.7% [inhibitor]
O=C(NCCN1CCN(c2ccccc2)CC1)c1cccn2c(=O)c3ccccc3nc12,–,inactive: 36.5%
O=C1CCC2S/C(=C/Nc3ccc(C(F)(F)F)cc3)C(=O)N12 (stereo not drawn),"inconclusive: 12.6 µM [inhibitor, single point]",–
OCC1OC(n2cnc3c(SCc4ccccc4)ncnc32)C(O)C1O (stereo not drawn),–,inactive: -6.32%
O=C(CSc1c2c(nc3ccc(Cl)cc13)CCCC2)N1CCN(c2ccc(Cl)cc2)CC1,"inconclusive: 14.1 µM [inhibitor, partial curve, poor fit]",–
CC(=O)c1cccc(NC(=O)Nc2cccs2)c1,"inconclusive: 11.2 µM [inhibitor, single point]",–
Cc1ccc(OCC(=O)Nc2ccc(NC(=O)c3ccco3)cc2)c(C)c1,"inconclusive: 2.82 µM [inhibitor, partial curve, poor fit]",–
O=C1C=C(c2ccccc2)C(O)(c2ccccc2)C1 (stereo not drawn),–,inactive: -9.84%
C=C[C@@H]1c2ccccc2N(S(=O)(=O)c2ccc(C)cc2)[C@H](c2ccc(C(F)(F)F)cc2)C1(C#N)C#N,"inconclusive: 2.51 µM [inhibitor, partial curve, poor fit]",–
C=CCN1c2ccccc2[C@]23C[C@@H](C(=O)OC)N(C(=O)c4cccs4)C2=NC(C(=O)OC)=C(C(=O)OC)[C@H]13,"inconclusive: 31.6 µM [inhibitor, single point]",–
Cc1cc(C)c2nc(C(F)(F)F)nc(NCCCN3CCCC3=O)c2c1,"inconclusive: 2 µM [inhibitor, partial curve, poor fit]",–
CC(C)n1c(O)c(N=NC(=O)CNC(=O)Cc2ccc(Cl)cc2)c2ccccc21,"inconclusive: 10 µM [inhibitor, partial curve, poor fit]",–

SMILES,Potency,"activity change, negative = inhibition"
O=C(c1ccc(OC2CCN(Cc3ccccc3C(F)(F)F)CC2)cc1)N1CCCCC1,active: 5.01 µM,–
COc1ccc(-n2c(Cc3ccccc3)nnc2SCC(=O)N2CCCc3ccccc32)cc1,"inconclusive: 10 µM [inhibitor, partial curve, poor fit]",–
CCOC(=O)c1ccc(Oc2nc(N(C)C)nc(N3CCOCC3)n2)cc1,"inconclusive: 10 µM [inhibitor, single point]",–
CCCN(CCC)CCCNC(=S)Nc1ccc2nc(N3CCCC3)cc(C)c2c1,"inconclusive: 5.62 µM [inhibitor, full curve, poor fit]",–
NS(=O)(=O)c1ccc(CNC(=O)CSc2nc3ccc(Cl)cc3[nH]2)cc1,–,inactive: 9.83%
O=C(CNc1ccc(F)cc1)N/N=C1\CCc2ccccc21,–,inactive: -4.77%
O=C(NCCc1ccc(Cl)cc1)c1cc(S(=O)(=O)N2CCCC2)ccc1F,"inconclusive: 22.4 µM [inhibitor, single point]",–
CC1SC(C)C(=O)N(CC(=O)NCc2ccc(F)cc2)C1=O (stereo not drawn),–,inactive: 12.2%
Cc1ccccc1NC(=O)Cn1nnc(C(=O)NCc2ccco2)c1N,"inconclusive: 3.16 µM [inhibitor, full curve] and inconclusive: 5.62 µM [inhibitor, full curve, poor fit]",–
CCN1CCCC1CNC(=O)CCc1nnc(CCC2CCCCC2)o1 (stereo not drawn),"inconclusive: 1.58 µM [inhibitor, full curve, poor fit]",–
O=C(O)COCC(=O)N1CCN(C(c2ccccc2)c2ccccc2)CC1,"inconclusive: 6.31 µM [inhibitor, partial curve, poor fit]",–
C#CCOc1c(Br)cc(C2C(C(=O)OC)=C(C)NC3=C2C(=O)c2ccccc23)cc1OCC (stereo not drawn),"inconclusive: 2.51 µM [inhibitor, full curve, poor fit]",–
O=C(NC1CCC(=O)N(CCSc2ccccc2)CC1)OCc1ccccc1 (stereo not drawn),"inconclusive: 11.2 µM [inhibitor, single point]",–
COc1ccccc1N1CCN(C(=O)C2CCN(S(=O)(=O)c3cccs3)CC2)CC1,–,inactive: -10.3%
COc1ccccc1NS(=O)(=O)c1cc(NC(=O)CNC(=O)c2ccccc2)ccc1C,"inconclusive: 12.6 µM [inhibitor, single point]",–
O=C(CCCOc1ccccc1)N1CCN(c2ccccn2)CC1,active: 10 µM,–
CCN(CC)S(=O)(=O)c1ccc(OC)c(NC(=O)CSc2cc(C)ccc2C)c1,"inconclusive: 11.2 µM [inhibitor, partial curve, poor fit]",–
Cc1ccc(C(=O)Nc2nnc(SCC(=O)N3CCCc4ccccc43)s2)cc1,"inconclusive: 2.51 µM [inhibitor, full curve]",–
O=C(c1ccc2c(=O)n3c(nc2c1)CCCCC3)N1CCN(c2ccccc2)CC1,"inconclusive: 6.31 µM [inhibitor, partial curve]",–
O=C(COc1ccc(Cl)cc1)NCc1ccccc1,–,inactive: 21.3%
Cc1cc2ccccc2c(=O)n1CC(=O)N1CCN(c2cccc(Cl)c2)CC1,–,inactive: -13.5%
